The test system of this series is ATP. Nature of the series: switch fluorescence ratio, 500 uM ATP over buffer (Cy3 cluster intensity, sum of 5 cycles each) (fold (ratio)); higher = stronger signal-on switching upon ATP binding; sequences stand for … in TCGTCGGCAGCGTCAGATGTGTATAAGAGACAGTTTTTTTTTTTTTTTTTTTTTTTTT…TC. The following applies: aptamer strand: ATP DNA aptamer (quencher-CACCTGGGGGAGTATTGCGGAGGAAGG + anchor), 100 nM annealed; ATP concentration: 500 uM; one replicate. The gist of the method:
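Switching-strand clusters labelled with Cy3 on a modified Illumina MiSeq flow-cell were annealed to 100 nM quencher-labelled ATP aptamer, imaged in selection buffer, and re-imaged after 15 min with 500 uM ATP at 22 °C. This was done over five cycles with NaOH stripping and re-annealing in between. The fluorescence ratio is summed target-cycle over summed buffer-cycle Cy3 intensity per cluster, averaged per switch-domain sequence, excluding clusters outside 100-1000 RFU.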

Values marked as one replicate rest on one cluster of the flow cell; about a third of the high ones do not repeat.
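Further: ATP exposure 15 min at 22 °C before imaging.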

As for CTGGGAGCAG, the switch fluorescence ratio is 1.03.
For GGGCAACGTG the value was 0.967.
TGGTTGAGAA: the switch fluorescence ratio is 1.
For TTCTAATGT, the switch fluorescence ratio was determined as 0.98.
As for TTCCAGAATC, the figure is 1.07; as for CCGGGAATGA, 1.08.
TATGTACTT: the switch fluorescence ratio was 1.04.
As for AAAAGCTACG, the figure is 0.998; as for GAAGTAATCT, 1.05.
In the case of TTTATTACTA, the switch fluorescence ratio came to 1.02.
With CGCGGTAGTA, the switch fluorescence ratio was 1.03.
For GGGGAGGAAC, the switch fluorescence ratio was 1.05.
Take GGGAACGTT: the switch fluorescence ratio stood at 1.16.
Regarding GTCTGTAAG, the switch fluorescence ratio came out at 0.993.
As for TTCGCTAATT, the figure is 1.02; as for GGGCTGTTGG, 0.965.
For AATGGAGGTC, the switch fluorescence ratio was found to be 1.03.
As for GGATTCCAAC, the switch fluorescence ratio came out at 0.989.
In the case of ATTATGTAG, the switch fluorescence ratio was found to be 0.985.
In the case of CTTAGGTACC, the switch fluorescence ratio stood at 1.05.
For CGTCGGAAGA the value was 1.03.
As for GACTACCTA, the figure is 1.13; as for TGAGTCGT, 0.994.
For TTTTCCCCAA the value was 1.43.
Turning to GGTGCTACAA, the switch fluorescence ratio is 0.988.
With ACGATGGAGA, the switch fluorescence ratio worked out at 1.09.
On to TTGATAACC, for which the switch fluorescence ratio was found to be 1.05.
On to TTTTCGCAT, for which the switch fluorescence ratio was determined as 1.28.
For GCCATGCGAA the value was 0.98; for CACTATTGCC, 1.03.
Turning to GTTAGTTCCG, the switch fluorescence ratio was 0.982.
For ACACCCGGTA the value was 1.15; for CCGATGCCGT, 1.01; for ATGGCTTGTG, 0.996.
For AATCTTAGTT the value was 1.01; for AGGCAAGGTG, 1.18; for ATTAGATAGG, 0.994.
As to GCTGTGGGGT, the switch fluorescence ratio stood at 1.03.
Turning to ACGGACGCA, the switch fluorescence ratio is 1.15.
As for GTGGGATGCA, the figure is 1.07; as for AGTACTACC, 1.13; as for ACGAATCCAG, 1.16.
As for CGATACCTGC, the figure is 1.08; as for AGTCGCTAGG, 0.985; as for TGTTTAAAAC, 1.04.
Take ACCAGAAAC: the switch fluorescence ratio was found to be 2.02.
As to GTCATTATTC, the switch fluorescence ratio worked out at 0.94.
Consider TACGGTAAGT, for which the switch fluorescence ratio was found to be 1.1.
As to TGGGGGGTAC, the switch fluorescence ratio worked out at 1.09.
For the sequence GTATATGCGG, the switch fluorescence ratio was 0.998.
With TTCAGCGGCT, the switch fluorescence ratio is 1.
Take TACAATTCTT: the switch fluorescence ratio stood at 0.965.
As for TCACGCGTTT, the switch fluorescence ratio amounted to 1.01.
On to AGTATACCAC, for which the switch fluorescence ratio was 1.08.
As for ATCGTTGGGG, the figure is 0.958.
In the case of CAATAAAAC, the switch fluorescence ratio is 1.01.
On to TGTTATTGTA, for which the switch fluorescence ratio came out at 0.982.
For ATTCTTGCT the value was 0.961; for CACCCTGCTC, 1.05.
For TTGTGGGAA the value was 0.974; for GTTGGGGAAC, 1.02; for GCAAGTGCCA, 1.01.
Consider GGGACAGTCC, for which the switch fluorescence ratio came out at 0.962.
For TTCCATCGG, the switch fluorescence ratio was 1.04.
For TCGTTGAGCG the value was 0.958; for CTTAGTCGGT, 1.01; for ATGTCAACCC, 0.989.
As to TGGGCTACGG, the switch fluorescence ratio stood at 1.01.
Consider ACAAAAGTCT, for which the switch fluorescence ratio was determined as 0.982.
Take GCCTGCCGGA: the switch fluorescence ratio was 1.08.
As to TCCAGTGGTC, the switch fluorescence ratio came out at 1.04.
On to CCAGCCGGGT, for which the switch fluorescence ratio was determined as 1.23.
For the sequence TTCGTTTG, the switch fluorescence ratio is 1.01.
As for ATACGCGTTC, the figure is 1.11; as for TTCAATAACG, 1.
In the case of ATATCCCGTT, the switch fluorescence ratio came to 0.995.
Regarding CCTGAACGGT, the switch fluorescence ratio was 1.02.
On to CCCAACGGGT, for which the switch fluorescence ratio turned out to be 1.
For TCTGATA the value was 0.98.
